From PubChem BioAssay AID488969 (Vanderbilt High Throughput Screening Facility, 2010)
Whole data set: some 110,000 compounds, median “z-score” near -0.1, cut for the highest 2% near 2. The list shows a part of the results. The source made the active and inactive calls.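 Rule for the calls: active = z-score in the third read window above 3 or below -3; inactive = the rest.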

What follows are compounds tested against Metabotropic glutamate receptor 8 (Rattus norvegicus) (UniProt P70579) (assay: rat mGluR8 modulators via GIRK flux, primary screen, cell-based, thallium flux, HTS (AID 488969)). Settings: HEK293 rat mGluR8, GIRK (G protein-gated inwardly rectifying potassium channel) thallium flux, FluoZin2; at 10 µM; stronger effect = higher value; submaximal glutamate (EC20) added with thallium.
UniProt P70579, sequence (P70579 whole entry, looked up): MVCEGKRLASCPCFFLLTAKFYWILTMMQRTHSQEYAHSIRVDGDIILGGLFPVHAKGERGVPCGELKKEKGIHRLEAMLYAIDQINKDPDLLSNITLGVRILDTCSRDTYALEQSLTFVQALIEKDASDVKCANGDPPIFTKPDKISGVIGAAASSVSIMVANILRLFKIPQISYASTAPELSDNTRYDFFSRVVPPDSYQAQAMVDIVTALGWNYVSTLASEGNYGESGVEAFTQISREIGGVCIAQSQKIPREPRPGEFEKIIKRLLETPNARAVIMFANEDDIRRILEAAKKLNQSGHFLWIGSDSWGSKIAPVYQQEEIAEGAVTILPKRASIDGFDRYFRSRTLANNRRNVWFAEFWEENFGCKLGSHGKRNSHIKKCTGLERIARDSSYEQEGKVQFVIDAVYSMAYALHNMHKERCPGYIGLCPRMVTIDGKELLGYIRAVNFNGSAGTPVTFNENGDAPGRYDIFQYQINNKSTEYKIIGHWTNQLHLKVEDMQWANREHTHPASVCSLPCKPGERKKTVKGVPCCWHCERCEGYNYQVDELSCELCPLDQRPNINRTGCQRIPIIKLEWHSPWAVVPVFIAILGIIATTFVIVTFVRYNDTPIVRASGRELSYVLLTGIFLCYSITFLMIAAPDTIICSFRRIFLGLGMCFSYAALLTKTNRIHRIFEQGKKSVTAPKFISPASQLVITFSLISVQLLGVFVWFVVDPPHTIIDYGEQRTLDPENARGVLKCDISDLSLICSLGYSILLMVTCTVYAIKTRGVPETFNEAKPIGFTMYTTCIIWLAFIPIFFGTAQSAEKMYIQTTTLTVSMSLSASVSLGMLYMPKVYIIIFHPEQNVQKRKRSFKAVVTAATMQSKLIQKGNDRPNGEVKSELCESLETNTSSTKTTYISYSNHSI

Compound | z-score
CC1CC(C)CN(C(=O)CNS(=O)(=O)c2ccc(Br)s2)C1 (stereo not drawn) | -0.102
COc1ccc(OC)c(Nc2nc(C3CC3)nc3c2nnn3Cc2ccccc2)c1 | -0.135
COc1cccc(-n2c(SCC(N)=O)nnc2-c2c[nH]c3ccccc23)c1 | -0.478
CN=c1scc(-c2ccc(Cl)cc2)n1C | 0.283
COc1ccccc1/C=N/NC(=O)C1=NNC(c2ccccc2)(c2ccccc2)C1 | -0.64
CCCCCCCNC(=O)c1ccc(N2CCC3(CC2)OCCO3)c([N+](=O)[O-])c1 | -0.646
CCOC(=O)c1cc2c(nc1NC(=S)Nc1ccccc1)CC(C)(C)OC2 | -0.292
O=C(Nc1ccc2snnc2c1)N1CCSCC1 | 0.442
Oc1ccc(-c2csc(NCc3ccco3)n2)cc1 | -2.16
Cn1cc(C(=O)NCN2CCCCC2)c2ccccc21 | -0.153
Cc1nn(CCc2n[nH]c(=S)n2C2CCCCC2)c(C)c1Br | -0.451
COc1ccc(CCC(=O)N2CCc3ccccc32)cc1 | 0.333
O=C1C=C(NCc2ccc(Cl)c(Cl)c2)CC1 | -0.436
CC(C)c1ccccc1NC(=S)NCc1ccccc1F | -0.148
COc1ccc(-c2oc(NC(=O)c3ccc(C)cc3)c(C#N)c2-c2ccc(OC)cc2)cc1 | -0.19
CCn1c(-c2ccccc2)c[nH]c1=S | 0.254
O=C1C2CCCN2c2ccc(S(=O)(=O)N3CCOCC3)cc2N1Cc1ccccc1F (stereo not drawn) | 1.76
Cc1c(C(=O)Nc2ccc3c(c2)OCO3)sc2ncn(CC(=O)N3CC(C)CC(C)C3)c(=O)c12 (stereo not drawn) | -0.047
OC(c1ccc(OCc2ccccc2)cc1)c1nnc(-c2ccccc2)o1 (stereo not drawn) | -0.346
O=C(CSc1nc2ccccc2c(=O)[nH]1)NCc1ccc(Cl)cc1 | 0.173
COc1cccc(/C(O)=C2/C(=O)C(=O)N(Cc3cccnc3)C2c2ccco2)c1 (stereo not drawn) | -0.0278
COc1ccc(N2CSC3=C(C#N)C(c4cc(OC)c(OC)cc4OC)CC(=O)N3C2)c(OC)c1 (stereo not drawn) | -0.516
N#CC1=C2SCN(c3ccccc3)CN2C(=O)CC1c1c(Cl)cccc1Cl (stereo not drawn) | -0.113
Cc1ccc(-c2nc(N=Nc3ccc(O)cc3)n[nH]2)cc1 | -0.269
COC(=O)c1ccc(NC(=O)c2ccc(CN3CCOCC3)cc2)cc1 | 0.716

Compound | z-score
CC1C(=O)C(C)C(c2cccs2)NC1c1cccs1 (stereo not drawn) | -0.819
O=C(COC(=O)c1ccc(CNS(=O)(=O)c2ccc(F)c(Cl)c2)cc1)NC1CCCCCCC1 | -0.299
O=C(Nc1cccc(Cl)c1Cl)C1CC(=O)N(c2ccc(Br)cc2)C1 (stereo not drawn) | 0.289
CC(C)NC(=O)c1cc(-n2cnnc2)ccc1Cl | -0.0712
O=C(O)c1ccc(NC(=O)C2CCCCC2)cc1 | 0.0879
COc1ccc(Cn2cnc3sccc3c2=O)cc1 | -0.167
Cc1c(C(=O)O)sc(=S)n1CCOc1ccccc1 | -0.832
Cc1cccc(NS(=O)(=O)Cc2ccccc2)n1 | 0.436
CC(=O)Nc1ccc(NC(=O)CN(c2ccc(F)cc2)S(=O)(=O)c2ccc3c(c2)OCCO3)cc1 | 0.203
CNCc1ccccc1Sc1cc(O)ccc1O | 0.0226
CCCc1c(C)[nH]c2ccc(NC(C)=O)cc2c1=O | -0.379
CCOC(=O)C1CN(S(=O)(=O)c2ccc(C)cc2)C1 | -0.116
CCCC(C(=O)N1CCOCC1)N1C(=O)C2C3C=CC(C3)C2C1=O (stereo not drawn) | 0.0586
COc1cc(C2CC(=O)C=C(O)C2)cc(OC)c1OC (stereo not drawn) | -0.099
COCCNC(C(=O)Nc1ccc([N+](=O)[O-])cc1Br)c1ccccc1 (stereo not drawn) | 0.633
c1ccc2c(c1)nc(-c1ccncc1)n1nnnc21 | -0.126
O=C(CSc1nnc2ccccn12)Nc1nsc(-c2ccccc2)n1 | active: 3.63
O=C(CSc1nnc(-c2cccs2)o1)N1CCc2ccccc21 | -0.479
CNC(=O)C1Cc2ccccc2CN1S(=O)(=O)c1cccs1 (stereo not drawn) | -0.206
COc1ccc(C(CNC(=O)c2ccc(N3CCCC3=O)cc2)N(C)C)cc1 (stereo not drawn) | 0.151
CCn1c(=N)n(CC(O)COc2cccc(C)c2)c2ccccc21 (stereo not drawn) | 0.778
O=C(Nc1ccccc1N1CCOCC1)c1ccc2ccccc2n1 | 0.337
CCOc1cc(/C=N/NC(=O)COc2ccc(Cl)cc2)ccc1OS(=O)(=O)c1ccccc1 | -0.111
Cc1ccc(Cc2nc(-c3cccnc3)no2)cc1 | -0.166
CC(=O)Cc1nsc(NC(=O)c2cn(-c3ccccc3)nc2-c2ccc(Br)cc2)n1 | 0.229

Compound | z-score
COc1cccc(C(=O)NCC(=O)N/N=C/c2cccs2)c1 | 0.0591
O=C(O)c1ccccc1-c1ccccc1C(=O)NCc1ccco1 | 0.227
CC1CC(=O)C2=C(C1)OC(N)=C(C#N)C2c1coc2ccccc2c1=O (stereo not drawn) | -0.233
CC1CCN(CC(C)CNC(=O)c2cc(-c3ccccn3)nc3ccccc23)CC1 (stereo not drawn) | -0.0396
Cc1c(C(=O)NC2=NCCS2)oc2ccccc12 | 0.411
COc1ccc(-c2cc(C(F)(F)F)n3ncc(C(=O)NCC4CCCO4)c3n2)cc1 (stereo not drawn) | -0.921
O=C(NCC(=O)N(Cc1ccccc1)C(C(=O)NC1CCCC1)c1ccncc1)c1ccco1 (stereo not drawn) | 0.158
CC(C)Oc1ccc(C2C(C(=O)c3ccco3)=C(O)C(=O)N2CCCN(C)C)cc1 (stereo not drawn) | 0.152
COC(=O)C1=C(C)Nc2ncnn2C1c1cccnc1 (stereo not drawn) | -0.0304
Cc1ccc(C)c(NC(=O)CSc2nnc(-c3ccccc3)n2N)c1 | 0.11
Cc1ccc(S(=O)(=O)c2cc3c(=O)n4ccccc4nc3n(CC3CCCO3)c2=N)cc1 (stereo not drawn) | 0.97
CC(O)C(NS(=O)(=O)c1ccc(Cl)cc1)C(=O)OCC(=O)N1CCN(c2ccccc2)CC1 (stereo not drawn) | 0.0764
CCn1c(SCCC#N)nnc1-c1ccncc1 | -0.263
O=C1CSC(c2ccccn2)N1c1ccccc1 (stereo not drawn) | -0.159
COc1ccc(NC(=O)C2CCN(S(C)(=O)=O)CC2)cc1 | -0.219
CCC(C)(C)n1nnnc1C(c1ccc(OC)c(OC)c1)N1CCN(c2cccc(OC)c2)CC1 (stereo not drawn) | -0.135
Cc1cc(=O)n2[nH]c(SCc3ccccc3)nc2n1 | -0.411
COc1ccc(C/C(N)=N/O)cc1 | 0.09
Cc1ccccc1NS(=O)(=O)c1cc(C(=O)N2CCCC2)ccc1C | 0.276
COc1ccc2c(C)c(C(=O)O)oc2c1 | -1.11
Clc1ccc(-c2nc(-c3ccccn3)no2)cc1Cl | -0.435
Cc1cn(-c2ccc(Br)cc2)[nH]c1=O | 0.263
CC1CCCCC1N1CCN(C(=O)c2cccc(F)c2)CC1 (stereo not drawn) | -1.26
